# Measured values reported in PubChem BioAssay AID686978 (National Center for Advancing Translational Sciences (NCATS), 2013).
# Values joined by “and” are separate entries in the source; they are usually repeats but may differ in a detail not shown here. Equal values may be shown once. The whole screen tested about 420,000 compounds, of which about 64,000 (15%) were called active. Inconclusive means that the source gave no clear call. Such entries were picked first, then a sample of the others. Calls follow the shape of the dose curve; as a rule, active = well fitted inhibition curve with a large enough effect; inconclusive = small, poorly fitted or top-dose-only effect; inactive = flat fitted curve, though single readings scatter. Potencies beside an inconclusive call are fits to weak or partial responses and may not hold up.
# Experiment: qHTS for Inhibitors of human tyrosyl-DNA phosphodiesterase 1 (TDP1): qHTS in cells in absence of CPT; also: nearly all actives have a fitted effect of over 55% in size
# Conditions: DT40 Tdp1-/- hTDP1 cells, no CPT, ATP luminescence, 48 h; activity change, negative = growth inhibition: at 46.2 µM (top of the series)
# How it was run: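 Seeded 400 DT40-hTDP1 cells/well (vehicle DMSO, no 20 nM CPT); pinned compounds; ≥48 hr at 37 °C; CellTiter-Glo luminescence as viability measure.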
# % is scaled to controls: 0 for no effect and ±100 for the full control effect; potency is read from the fitted curve at half-maximal effect; tags tell the direction and shape of the fitted curve.
Structure (SMILES),Potency,"activity change, negative = growth inhibition"
OC[C@@H]1CN(CCc2ccccc2)C[C@H](n2cnc3c(N4CCOCC4)ncnc32)O1,"inconclusive: 0.0082 µM [inhibitor, full curve, poor fit]",–
Cc1ccc(C2=NN(CCC(=O)NC3CCCC3)C(=O)CC2)cc1,inactive,–
CNC(=O)/C(C#N)=C/c1ccc(-c2nc3ccccc3s2)o1,"inconclusive: 20.6 µM [inhibitor, partial curve]",–
CC(C)(C)CC(C)(C)N=C1Nc2ccccc2N[C@]12C[C@H]1CCCC(=O)N3CC[C@@H](C2)[C@@H]13,"inconclusive: 22.4 µM [inhibitor, single point]",–
N#Cc1cccc(NC(=O)c2ccccc2C(=O)O)c1,inactive,–
Cc1ccccc1C(C(=O)NCc1ccccc1)N(Cc1ccco1)C(=O)c1ccccn1 (stereo not given),active: 14.6 µM,–
COc1ccc(C2Nc3ccccc3-c3cc(C)nn32)cc1OC (stereo not given),"inconclusive: 20.6 µM [inhibitor, single point]",–
COc1c(Cl)cc(Cl)cc1CNCc1ccccc1,"inconclusive: 29.1 µM [inhibitor, single point]",–
Cc1cccc(-[n+]2c(C)cc(C)c3c(=O)[nH]c(=O)[nH]c32)c1,inactive,–
COc1ccc(CN=Cc2c(O)[nH]c3ccccc23)cc1,"inconclusive: 29.1 µM [inhibitor, single point]",–
Cc1nc(CN(C)C(=O)c2cc(COc3ccc4ncccc4c3)on2)cs1,active: 5.8 µM,–
CCNS(=O)(=O)c1ccc(CCC(N)=O)cc1,–,inconclusive: -30.5% [inhibitor]
Cc1ccc(/C=C/C(=O)NCc2ccc(S(N)(=O)=O)cc2)o1,inactive,–
COC(=O)c1cc2sc(C)cc2n1Cc1cccc(OC)c1,active: 23.1 µM,–
CC(C)(C)c1ccc(-c2nnc3sc(-c4ccncc4)nn23)cc1,"inconclusive: 20 µM [inhibitor, partial curve, poor fit]",–
O=C(Nc1ccc(Br)c2cccnc12)c1ccc(Cn2cc([N+](=O)[O-])cn2)o1,"inconclusive: 16.4 µM [inhibitor, single point]",–
COc1cc(/C=C/C(=O)Nc2ccc3nc4n(c(=O)c3c2)CCCC4)cc(OC)c1OC,"inconclusive: 2.31 µM [inhibitor, full curve]",–
N#Cc1sc2nc(C3CC3)cc(-c3ccc(Cl)cc3)c2c1N,"inconclusive: 20.6 µM [inhibitor, single point]",–
CC(C)(C)c1cc[n+](/C(C(=S)Nc2ccccc2F)=C(/[O-])c2ccc3c(c2)OCCO3)cc1,"inconclusive: 18.4 µM [inhibitor, single point]",–
CN(C)CCCN(C(=O)c1ccc(S(=O)(=O)N2CCCCCC2)cc1)c1nc2ccc(F)cc2s1,"inconclusive: 29.1 µM [inhibitor, single point]",–
O=S(=O)(c1ccc(-c2csc(-c3cccnc3)n2)cc1)N1CCCCC1,"inconclusive: 29.1 µM [inhibitor, single point]",–
COc1ccc(CNC(=O)CCCN2C(=O)CSc3c2c(C)nn3-c2ccccc2)cc1,"inconclusive: 29.1 µM [inhibitor, single point]",–
Fc1ccc(-c2nnsc2Sc2ccccn2)cc1,inactive,–
COc1ccc(C(=O)[C@@H]2CC[C@](C)(C(=O)O)C2(C)C)cc1,inactive,–

Structure (SMILES),Potency,"activity change, negative = growth inhibition"
CCCCNC(=O)c1nc(C2CCNCC2)oc1-c1cccc(C(F)(F)F)c1,"inconclusive: 29.1 µM [inhibitor, single point]",–
CCN(CC)CCNC(=O)C1CCN(c2nn3cc(-c4ccc(F)cc4)nc3s2)CC1,active: 3.26 µM,–
Cc1cccn2c(=O)c(C(=O)NCc3ccc(F)cc3)c(O)nc12,"inconclusive: 18.4 µM [inhibitor, single point]",–
Cc1[nH][nH]c(=O)c1C(c1c(C)[nH][nH]c1=O)c1cn(Cc2ccc(F)cc2)c2ccccc12,active: 5.17 µM,–
CN(C/C=C/C#CC(C)(C)C)Cc1cccc2ccccc12,"inconclusive: 33.5 µM [inhibitor, single point] and inconclusive: 29.1 µM [inhibitor, single point]",–
O=C(CCCN1C(=O)/C(=C/c2cccs2)SC1=S)Nc1ccc(O)cc1,"inconclusive: 29.1 µM [inhibitor, single point]",–
CN(c1ccccc1)c1nc(N)c([N+](=O)[O-])c(NC2CCCCC2)n1,"inconclusive: 18.4 µM [inhibitor, partial curve]",–
CSC1=N/C(=C\c2ccccc2F)C(=O)S1,inactive,–
Oc1ccc(-c2n[nH]c(=S)n2-c2ccc3c(c2)OCCO3)c(O)c1,"inconclusive: 23.1 µM [inhibitor, single point]",–
Cc1ccc2cc(C#N)c(N3CCCN(S(=O)(=O)c4ccccc4)CC3)nc2c1,active: 25.9 µM,–
COc1ccc(CN2CCCC(CNC(=O)c3ccc(F)cc3)C2)c(F)c1 (stereo not given),"inconclusive: 0.146 µM [inhibitor, full curve, poor fit]",–
CCOC(=O)c1c(-c2ccc(OC)cc2)oc2ccc(OCc3ccccc3C)cc12,"inconclusive: 16.4 µM [inhibitor, single point]",–
Cc1noc(C)c1COC(=O)CCCNC(=O)c1ccc(Cl)cc1,"inconclusive: 32.6 µM [inhibitor, single point]",–
Cn1c2ccccc2n2c(=O)c(Cl)c(-c3ccccc3)c(C#N)c12,"inconclusive: 18.4 µM [inhibitor, single point]",–
Cc1ccc(CSc2nc3ccccc3c(=O)n2C)cc1,"inconclusive: 29.1 µM [inhibitor, single point]",–
CCc1ccc(CN(C)C(=O)c2cccc(S(=O)(=O)Nc3ccccc3OC)c2)cc1,"inconclusive: 16.4 µM [inhibitor, single point]",–
O=C(CN1CCN(S(=O)(=O)N2CCCCC2)CC1)Nc1ccc(Cl)c(Cl)c1,active: 23.1 µM,–
CNS(=O)(=O)c1ccc2c(c1)[nH]c(=S)n2C,inactive,–
CC1CCCN(C(=O)c2ccc(S(=O)(=O)N3CCC(c4nc5ccccc5s4)CC3)cc2)C1 (stereo not given),active: 6.51 µM,–
CN1C(=O)[C@H]2[C@@H](/C=C/c3ccccc3)N3C(=O)CN(Cc4ccc(-c5ccccc5)cc4)C(=O)[C@@]3(C)[C@H]2C1=O,"inconclusive: 16.4 µM [inhibitor, single point]",–
COc1ccccc1NC(=S)N1CCN(c2nc(-c3ccccc3)cs2)CC1,active: 16.4 µM,–
O=C(Cc1cscn1)N1CCOc2ccc(CN3CCN(c4ccccn4)CC3)cc2C1,inactive,–
Cc1cc(C)c(C(=O)CN2C(=O)NC3(CCCCCC3)C2=O)cc1C,"inconclusive: 25.9 µM [inhibitor, partial curve, poor fit]",–
Cc1cc(N/N=C/c2ccc(F)cc2)nc(-n2nc(C)cc2C)n1,active: 3.66 µM,–

Structure (SMILES),Potency,"activity change, negative = growth inhibition"
COc1ccc2c(CN3CCN(c4ccccc4OC)CC3)cc(=O)oc2c1,active: 14.6 µM,–
COCc1cc(C)nc(SCC(=O)Nc2ccc3c(c2)OCO3)c1C#N,"inconclusive: 16.4 µM [inhibitor, partial curve]",–
Cc1ccccc1CN(C)C[C@@H]1OCc2cnnn2CCCC(=O)N([C@H](C)CO)C[C@H]1C,inactive,–
COCCn1c(N)c(N(Cc2ccccc2)C(=O)c2ccc(-c3ccc(Cl)cc3)o2)c(=O)[nH]c1=O,"inconclusive: 13 µM [inhibitor, single point]",–
Cc1ccc(NC(=O)c2oc3ccccc3c2NC(=O)C2CC2)cc1,inactive,–
OCC1OC(n2cnc3c(SCc4ccccc4)nc(NO)nc32)C(O)C1O (stereo not given),"inconclusive: 25.9 µM [inhibitor, single point]",–
Cn1cc(C(=O)N/N=C/c2ccc(Br)c([N+](=O)[O-])c2)c2ccccc21,"inconclusive: 14.6 µM [inhibitor, partial curve]",–
CN(Cc1ccco1)C(=O)CCc1nc2sc3c(c2c(=O)[nH]1)CCCC3,"inconclusive: 13 µM [inhibitor, partial curve]",–
CCOC(=O)c1c(C)[nH]c(C(=O)CSc2nc(C)cc(C)n2)c1C,active: 20.6 µM,–
OC(CSc1ccccc1Cl)CN1CCN(c2ccc(F)cc2)CC1 (stereo not given),active: 23.1 µM,–
O=C(/C=C/c1ccc(F)cc1)c1ccccc1Br,active: 16.4 µM,–
CCC(=O)Nc1nc(C)c(-c2csc(Nc3ccc(C(=O)O)cc3)n2)s1,inactive,–
Cc1nc2cncnc2n(-c2ccccc2)c1=O,inactive,–
CN(C)C(=O)c1ccc(COc2ccccc2Br)o1,"inconclusive: 29.1 µM [inhibitor, single point]",–
Cc1cccc(NC(=O)C2c3ccccc3Oc3ccccc32)n1,"inconclusive: 23.1 µM [inhibitor, single point]",–
O=C(NCCc1nc2ccccc2[nH]1)/C(=C/c1ccco1)NC(=O)c1ccc(Br)o1,"inconclusive: 29.1 µM [inhibitor, single point]",–
COCCn1nnnc1C(c1cccc(C(F)(F)F)c1)N1CCN(Cc2ccccc2)CC1 (stereo not given),"inconclusive: 18.4 µM [inhibitor, single point]",–
CCN1C(=O)C(O)(CC(=O)c2ccc(-n3cccc3)cc2)c2ccccc21 (stereo not given),"inconclusive: 29.1 µM [inhibitor, partial curve, poor fit]",–
ClCc1ncc(-c2ccc(Cl)cc2)o1,active: 16.4 µM,–
Cc1nc(SCC(=O)NCC2CCCO2)c2c3c(sc2n1)CCCC3 (stereo not given),"inconclusive: 23.1 µM [inhibitor, single point]",–
CCOc1ccc(N2C(=O)C3ON(C)C(c4ccc([N+](=O)[O-])cc4)C3C2=O)cc1 (stereo not given),inactive,–
CCOc1ccc(OCC)c(NC(=O)C2COc3ccccc3O2)c1 (stereo not given),inactive,–
